# Laboratory results as given in the supplement of paper PMC4466236.
# The full ranking holds about 33,000 sequences; the median of “E-score (dimensionless, -0.5 to 0.5)” is about -0.058, and the highest 2% start at about 0.35. Some of the results follow.
# Test system: MvaT
# Experiment: PBM 8-mer E-score (mean of HK and ME arrays) (E-score (dimensionless, -0.5 to 0.5)); higher = stronger relative binding preference; most listed sequences are background and not binding sites
# In short: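 Reported values are rank-based E-scores, taken as the mean of two universal arrays and parsed with a custom script. Each 8-mer score falls between -0.5 and 0.5. The arrays, ME and HK, were double-stranded 60-mers with a constant 25-mer primer region and a variable 35-mer region covering all 8-mers. They were probed, by an earlier protocol, with full-length P. aeruginosa MvaT carrying an N-terminal glutathione S-transferase fusion.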
row,Sequence,PBM 8-mer E-score
1,ATGAACAG,-0.0132
2,ATGCCGTG,-0.155
3,AAGCTAGC,-0.143
4,AGGCTGAC,-0.204
5,CCATAATC,0.136
6,AATCTGTG,0.0128
7,AACTAGCG,0.0587
8,CCAAGCAG,-0.0707
9,AGGCGTGG,-0.239
10,AACCAGTC,-0.137
11,CTCATGAC,-0.0699
12,AGACGGCG,-0.146
13,CTCGCGAC,-0.111
14,CCAAGACA,-0.0596
15,TACGGGCA,-0.173
16,ATAGATAG,-0.0217
17,ACGCACAT,0.15
18,AGTCTTTA,0.0956
19,AGTATCAT,0.128
20,ACACGTCA,-0.0942
21,ATTCCTCA,0.129
22,CCGAAACA,0.00391
23,CTTGACTA,0.0728
24,AGCTGGAA,-0.0501
25,CCATTGAA,0.0154

row,Sequence,PBM 8-mer E-score
1,CTATCAGC,-0.095
2,GTCGGCTA,-0.13
3,GGATCGTA,-0.0709
4,CTAACCCC,-0.226
5,GAGGGATA,-0.0756
6,ACACTCCA,-0.0634
7,ATTACGTG,0.217
8,CGCTTACG,-0.148
9,GGATCTAA,-0.0946
10,TAGCCAAA,-0.0557
11,ATATTGCA,0.268
12,TGACCCAA,-0.0751
13,CTCTAGTC,-0.0615
14,ATTATACC,0.337
15,AACACACT,0.117
16,CCTAGCGC,-0.321
17,CAACCGTC,-0.0461
18,ACTTTCAC,0.216
19,GCCTTCAA,-0.217
20,ATATCGCC,0.101
21,AGTGCATG,-0.0179
22,ACAAAGCT,-0.142
23,AAAGTACG,0.156
24,GTCATACA,0.0415
25,GTTTGATA,0.138

row,Sequence,PBM 8-mer E-score
1,CGCAATTA,0.211
2,AATAGTAG,0.294
3,ACACATTA,0.355
4,ACGCATAA,0.0642
5,GGCCCTCA,-0.238
6,AGCCCTGG,-0.299
7,GCCACTAC,-0.0236
8,GCAACGGC,-0.194
9,ATACGGGG,-0.188
10,CTTTCGAC,-0.154
11,GGCACGTA,-0.00829
12,AGTCGGAG,-0.154
13,AGGGGGTA,-0.342
14,AGCTGGCA,-0.268
15,CCTTGCGA,-0.186
16,AAACTGGC,-0.0558
17,ATCAGAAC,-0.0171
18,CAAAGGAA,-0.146
19,AAGTCTAT,0.199
20,CATTTGGG,-0.00258
21,CTGGGGTC,-0.186
22,CGCTATTA,0.18
23,AGGTATCG,-0.114
24,CGTTGTAG,-0.0357
25,AACGCTTA,0.0532

row,Sequence,PBM 8-mer E-score
1,TATGCGAA,0.18
2,AAGAGGTA,-0.0508
3,GACATCTC,-0.112
4,ACCGTCAC,-0.136
5,CTTAGGCA,-0.131
6,CATGTAAC,0.227
7,TAGAGTGA,-0.00569
8,CCCCACTC,-0.246
9,AGCTGGCG,-0.221
10,ACCTGCTC,-0.197
11,ACCAGATA,0.1
12,AGACTAAT,0.203
13,CACCAATA,0.233
14,CGCACGTC,-0.129
15,GCAATTCA,0.184
16,GAGCCGTA,-0.0952
17,CGACAGAC,-0.0175
18,CGGAGGCA,-0.153
19,GTAACTAC,0.0808
20,AAATCTCT,-0.116
21,AACCACAA,0.0891
22,GCGCCTTA,-0.0712
23,CGAAGCCA,-0.119
24,AGGTACAA,0.0242
25,ATTCCGAC,0.00924

row,Sequence,PBM 8-mer E-score
1,AACTGAGG,0.0319
2,GGTGAACA,0.119
3,AATGACTG,0.06
4,AGCAATTA,0.231
5,CCTGGACG,-0.314
6,AACTAGGT,0.0582
7,ACGTTCCA,-0.0647
8,ACGCAATC,-0.159
9,CTTGGCTA,-0.0478
10,ATGCCGAA,0.0569
11,GAAGACGA,-0.0611
12,ACGTTGCA,0.0949
13,ATTCGAAT,0.218
14,CCACCCTC,-0.162
15,CCCAGGAA,-0.0332
16,GACCCCGC,-0.281
17,ACTATTTG,0.258
18,AGTGGACG,-0.165
19,AACCTGTA,-0.0744
20,CTCATCTC,-0.257
21,GCGCGCAC,-0.165
22,CGGTGACG,-0.135
23,GGCATGAC,-0.333
24,TACTAATA,0.357
25,ATAACTAT,0.388

row,Sequence,PBM 8-mer E-score
1,CGTGTGTA,-0.0605
2,CACTTTTA,0.209
3,AATCCGGA,-0.0456
4,AATGCGTG,0.0979
5,CGCCTCAA,-0.103
6,ACGCCGCC,-0.222
7,AGTGAGTA,0.0523
8,AACGCGAA,0.0487
9,GTCGAGTA,0.00658
10,GTTAGACA,-0.00485
11,AAAAAGGT,-0.0123
12,AAGTAACA,0.288
13,GCCTTGAC,-0.164
14,CCGCTGAA,-0.0883
15,CCTGCTCA,-0.19
16,ACTACGAG,0.0492
17,ACTCATAC,-0.0213
18,CTTAGACA,0.0224
19,AAGGTCTA,-0.222
20,AATCGCAT,-0.00561
21,ATTGAAGC,0.0357
22,TATTTGAA,0.338
23,CCAACACA,0.0511
24,GCCCAGAA,-0.0885
25,CCTTAGCG,-0.162

row,Sequence,PBM 8-mer E-score
1,CTAGTAGC,-0.151
2,CCAGCGGC,-0.283
3,ACTTTACT,0.246
4,ACGGAGCA,-0.148
5,GAGATCGA,-0.162
6,GCTGACCC,-0.258
7,ACGATCAA,0.0196
8,CAACTGGC,-0.0893
9,CCTCCACC,-0.303
10,TAGTAGAA,0.131
11,ATTGTAGA,0.16
12,GGGCTTAA,-0.0336
13,GCGGCGAA,-0.126
14,AGTGGTTA,0.0672
15,AGGGTAGG,-0.164
16,CCATACGC,-0.202
17,AAGCCTTA,0.108
18,GTCGTGCA,-0.0451
19,AAAGACTG,0.0852
20,AGTTATTC,0.248
21,ATACAGTG,0.112
22,ACTTGGTA,-0.109
23,CTGGGGAC,-0.264
24,GGGGTACC,-0.321
25,ATTTACCG,0.212

row,Sequence,PBM 8-mer E-score
1,GTCCGGTA,-0.22
2,CGTATTTC,0.0305
3,AACCTCAA,-0.036
4,CATATGCG,-0.024
5,GGCTCTTA,0.0265
6,GTACCAAA,-2.5e-05
7,GGGTTGTA,0.0806
8,CGAGGACG,-0.307
9,ATGGATCC,-0.104
10,GATTCGAC,-0.0533
11,ATGGGGTA,0.0903
12,TCGGAAGA,0.0441
13,TCCATCGA,-0.0223
14,TGCGCGAA,0.000508
15,CAATACCA,0.216
16,TCTACTAA,0.135
17,GGTAGAGA,-0.0761
18,AAATCGCG,0.165
19,CTCGCTAC,-0.213
20,GATAGTGA,0.154
21,CCAAGGGG,-0.373
22,AAGATGAG,0.0205
23,GAGCTAGC,-0.261
24,AAGAGCAC,-0.0893
25,CCACGCGA,-0.2

row,Sequence,PBM 8-mer E-score
1,GAGCCATA,-0.0175
2,AAACCATA,0.251
3,CGTGTCGC,-0.162
4,CACACTGG,-0.235
5,AGAAGCGA,-0.162
6,CAATCAGA,-0.124
7,ACAGTCAG,-0.156
8,ACAATTAA,0.347
9,CACCAACC,-0.196
10,CATGGATA,0.115
11,GCGAAAAC,0.058
12,AACACTTA,0.326
13,AATAACGT,0.291
14,CGTTAACA,0.114
15,CGGGAGTC,-0.176
16,ATAACAGG,0.162
17,AGTGATAG,0.119
18,TGCACGAA,-0.107
19,TCAAAAAA,0.132
